About 230 (0.21%) of roughly 110,000 compounds showed an effect of 50% or more. The list shows a part of the results.
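Further: 30 min substrate incubation versus DMSO and 10 µM JCP410 controls.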

The experiment deals with DPAP1 (Plasmodium falciparum, UniProt Q8IIJ9). Nature of the experiment: primary screen, percent inhibition; read by cleavage of a fluorogenic dipeptide substrate; higher = more effect of the substance. Details: species or system P. falciparum D10 trophozoite lysates; single well.
Chain of DPAP1 (Q8IIJ9 whole entry, looked up): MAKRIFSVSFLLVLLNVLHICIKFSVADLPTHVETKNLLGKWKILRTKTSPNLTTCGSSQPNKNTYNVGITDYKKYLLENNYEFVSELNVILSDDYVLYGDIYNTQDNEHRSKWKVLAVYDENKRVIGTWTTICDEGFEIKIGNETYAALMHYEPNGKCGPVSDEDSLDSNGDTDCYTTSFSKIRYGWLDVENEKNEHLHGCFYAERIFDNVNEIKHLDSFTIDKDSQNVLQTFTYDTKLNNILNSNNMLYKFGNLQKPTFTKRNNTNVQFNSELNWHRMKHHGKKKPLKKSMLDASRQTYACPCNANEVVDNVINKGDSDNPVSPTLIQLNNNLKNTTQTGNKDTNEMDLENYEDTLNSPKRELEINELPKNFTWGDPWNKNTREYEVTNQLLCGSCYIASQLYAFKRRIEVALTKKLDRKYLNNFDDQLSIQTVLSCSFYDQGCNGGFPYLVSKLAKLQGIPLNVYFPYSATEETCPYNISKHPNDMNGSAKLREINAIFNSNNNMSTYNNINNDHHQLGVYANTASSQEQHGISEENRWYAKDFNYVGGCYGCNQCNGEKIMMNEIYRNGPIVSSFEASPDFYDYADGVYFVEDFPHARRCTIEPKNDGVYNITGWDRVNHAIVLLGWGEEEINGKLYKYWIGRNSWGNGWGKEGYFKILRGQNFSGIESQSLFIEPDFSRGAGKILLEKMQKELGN
`Cc1ccc(OCCCCN2CCCCC2)cc1C`: the “% Inhibition @ 10 uM” value was 2.8%.
In the case of `Cc1ccc2c(CNCc3ccccc3F)c(C(=O)O)n(Cc3cccc(F)c3)c2c1` it was -6.22%; in that of `Cc1ccc2oc(-c3ccc(C)c(NC(=O)c4ccc(Cl)cc4Cl)c3)nc2c1`, -0.693%.
For the compound `O=C(O)CCC(=O)Nc1sc2c(c1C(=O)Nc1ccccc1)CCC2`, the “% Inhibition @ 10 uM” value is 2.69%.
In the case of `CC12CC3CC(C)(C1)CC(NC(=O)SCc1ccccc1)(C3)C2` it was -1.5%.
Turning to `O=C(NCCCN1CCCC1=O)C1CCN(c2nnc(-n3cccc3)s2)CC1`, the “% Inhibition @ 10 uM” value is listed as -4.04%.
In the case of `CCn1nc(C)c(NC(=O)c2cccc(C)c2)c1C` it was -5.92%.
As to `CCSc1nc2c(c(=O)n(C)c(=O)n2C)n1Cc1ccc(Cl)cc1`, the “% Inhibition @ 10 uM” value amounted to 3.05%.
Regarding `O=C(NCc1ccccn1)C(Cc1ccccc1)NS(=O)(=O)c1cccc2nsnc12` (stereo not shown), the “% Inhibition @ 10 uM” value is -3.23%.
In the case of `COc1ccc(C(=O)NC(Cc2ccccc2)c2ccccc2)c(OC)n1` (stereo not shown) it was -5.03%.
`CCc1nn(-c2cc(Oc3ccc(C)cc3)ncn2)c(N)c1C#N`: the “% Inhibition @ 10 uM” value is -2.24%.
In the case of `Cc1ccc(-n2ncnc2-c2cccc(Cl)c2Cl)cc1Cl` it was 5.2%.
In the case of `CCc1ccc(-n2nc(C)c3c(C)cc(=O)n(CC(=O)NCc4ccc(OC(C)C)cc4)c32)cc1` it was 3.97%; in that of `COC(=O)c1sc(N2C(=O)c3oc4cc(C)c(C)cc4c(=O)c3C2c2ccc(F)cc2)nc1C` (stereo not shown), -1.55%.
In the case of `COc1cc(C(=O)Nc2ncc(Cc3ccc(F)cc3)s2)cc(OC)c1OC` it was -17.7%.
Take `CNC(=O)CN(c1cccc(OC)c1)S(=O)(=O)c1ccccc1`: the “% Inhibition @ 10 uM” value is -1.95%.
In the case of `CCN1CCCC1CNS(=O)(=O)c1c(C)nc2scc(C)n2c1=O` (stereo not shown) it was -1.02%; in that of `Cc1ccccc1Cc1c(C)nc2nc(SCC(=O)NCCC(C)C)nn2c1C`, -1.29%; in that of `O=C(COc1ccc(F)cc1)NCCN1CCOCC1`, -1.04%.
With `COc1ccc(Br)cc1/C=c1/sc2nc3ccccc3n2c1=O`, the “% Inhibition @ 10 uM” value was 6.12%.
In the case of `Oc1nc(-c2ccccc2Cl)c2cc(Br)ccc2n1` it was 0.962%.
In the case of `CCOC(=O)C1=C(C)N(Cc2ccco2)C(=O)C1(NC(=O)c1ccccc1)C(F)(F)F` (stereo not shown), the “% Inhibition @ 10 uM” value is -2.63%.
In the case of `CC1CCCCN1CCCNC(=O)Cn1nc(-c2ccccc2)ccc1=O` (stereo not shown) it was 1.97%; in that of `CCOc1nc(NC(=O)NS(=O)(=O)Oc2ccc(F)cc2)nc(-c2ccccc2)n1`, -0.924%; in that of `COC(=O)C1=C(C)N(C)C(C)=C(C(=O)OC)C1c1ccc(C(=O)OC)cc1`, -8.04%.
Take `COc1ccc(NC2=NC(=O)/C(=C\c3ccc(OC)c(OC)c3OC)S2)cc1`: the “% Inhibition @ 10 uM” value was -4.13%.
In the case of `O=C(CN1C(=O)CSc2ncccc21)N1CCN(C2CCCCC2)CC1` it was -6.01%.
In the case of `c1ccc2c(OCCCn3ccnc3)cccc2c1` it was 4.6%; in that of `C=CCOc1ccc(/C=C2/SC(=O)N(CN3CCCCC3)C2=O)cc1`, -9.45%; in that of `CN1CCCN(CC2CC=CCC2)CC1` (stereo not shown), -0.603%.
In the case of `O=C(CCCn1sc2ccccc2c1=O)N1CCN(Cc2ccc3c(c2)OCO3)CC1` it was 3.68%.
On to `CC(C)CCn1cnc2c(NCc3ccccc3)ncnc21`, for which the “% Inhibition @ 10 uM” value is -3.27%.
In the case of `Cc1ccc(-c2cc(C(=O)N3CCC4(CC3)OCCO4)[nH]n2)cc1` it was -7.15%; in that of `N#CCNC(=O)[C@H](Cn1ccnn1)NC(=O)OCc1ccccc1`, -5.2%.
Regarding `CCc1ccccc1NC(=O)Cc1cccs1`, the “% Inhibition @ 10 uM” value is -2.18%.
As to `Cc1ccc(NC(=O)COc2ccc(C)cc2C)nc1`, the “% Inhibition @ 10 uM” value is listed as 3.24%.
In the case of `CCN1CCN(Cc2ccc(Br)s2)CC1` it was 3.1%; in that of `Cc1ccc(NS(=O)(=O)c2ccc(Cl)cc2)cc1`, -4.08%; in that of `c1ccc2c(c1)OCC(CNc1nnc(Cc3ccncc3)c3ccccc13)O2` (stereo not shown), 0.44%.
Take `CC(=O)c1nn(-c2cccc(Br)c2)c(-c2ccco2)c1C#N`: the “% Inhibition @ 10 uM” value was -1.64%.
In the case of `Cc1ccc(NS(=O)(=O)c2ccc(C(C)(C)C)cc2)cn1` it was -7.25%; in that of `CCN(CC)c1nc(N)nc(-c2cc(Cl)ccc2OC)n1`, 2.27%.
In the case of `CCCOc1ccc(C2C(C(=O)c3cc4ccccc4o3)=C(O)C(=O)N2CCN(C)C)cc1` (stereo not shown) it was -3.36%; in that of `CCn1c2ccccc2c2cc(CN3CCC(C(N)=O)CC3)ccc21`, -4.75%.
In the case of `Cc1c(Cl)cccc1Nc1nc(N)nc(CSc2ncccn2)n1` it was 0.583%; in that of `C=CC(=C)CC(NC)c1ccccc1` (stereo not shown), 6.24%.
For the compound `CCOc1ccc2c(c1)c(C(C)=O)c(C)n2-c1ccccc1`, the “% Inhibition @ 10 uM” value is listed as -1.47%.
In the case of `C#CCSc1nc2sc3c(c2c(=O)n1C)CCC3` it was 2.38%; in that of `O=C1c2ccncc2C(=O)N1c1ccc(Br)cc1`, -5.23%.
Regarding `Cn1c(=O)c2sccc2n2c(CCCC(=O)N3CCC(C(N)=O)CC3)nnc12`, the “% Inhibition @ 10 uM” value stood at 1.02%.
Consider `CCCC1=C(C(=O)OCC)C(c2ccc(OC)c(OC)c2)NC(=O)N1` (stereo not shown), for which the “% Inhibition @ 10 uM” value is listed as 2%.
In the case of `CC(C)Cn1cc(NC(=O)NCc2ccc(F)cc2)c2ccccc2c1=O`, the “% Inhibition @ 10 uM” value is 3.26%.
In the case of `CC(C)N(C)C1CCN(S(=O)(=O)c2csc(C(N)=O)c2)CC1` it was -5.31%.
In the case of `COc1ccccc1/C=C/C1=NC(=C\c2cccc(OC)c2OC)/C(=O)O1` it was 1.28%; in that of `Cc1c(-c2ccccc2)cn2c1-c1ccc(C)n1CC2`, 6.24%; in that of `Cc1ccc(S(=O)(=O)NC(CC(=O)O)c2cccs2)cc1` (stereo not shown), 3.64%.
`Oc1ccc2c(CN3CCOCC3)c(O)ccc2c1CN1CCOCC1`: the “% Inhibition @ 10 uM” value is reported as -3.92%.
In the case of `CCC(C)NC(=O)C1CCN(S(=O)(=O)N2CCOCC2)CC1` (stereo not shown) it was 1.85%; in that of `CCC1CCCCN1C(=O)c1cn(CC)c(=O)c2cc(OC)c(OC)cc12` (stereo not shown), 2.64%; in that of `Cc1ccc(CNC(=O)C(C)n2c(=O)cc(C)c3c(C)nn(-c4ccccc4)c32)o1` (stereo not shown), -2.11%.
For the compound `CC(=O)N[C@H]1[C@H](OCCCN2C(=O)c3ccccc3C2=O)O[C@H](CO)[C@@H](O)[C@@H]1O`, the “% Inhibition @ 10 uM” value came to 6.31%.
In the case of `CCOc1ccc2oc(=O)cc(CN3CCN(C(=O)c4ccccc4)CC3)c2c1` it was -1.07%; in that of `CN(C)CCCN(CCCN(C)C)Cc1ccc(Cl)c(Cl)c1`, -2.34%.
As to `CCc1nn(C(C)C(=O)NCCCN2CCCC2=O)c(=O)c2cc3occc3n12` (stereo not shown), the “% Inhibition @ 10 uM” value was -5.63%.
